Counter-ions that a name gives are not always drawn. This is one part of the list. Cut-off read from the data, not from the text of the source: active = -2 or less and inactive = the rest. Single values are uncertain, as repeats are few or missing.
These compounds were tested on hPSC-derived cortical neurons (WA09) (assay: nuclei number (viability) z-score; higher = more surviving cells). Conditions: 5 µM; treatment: days 7-14 after plating, readout day 21.
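Note: nuclei counted from DAPI counterstain by automated high-content image analysis, four fields per well at ×20 in 384-well plates, with sequential b-score then z-score normalization.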

How did the “nuclei number (z-score)” value turn out when CCN(CC)CC(=O)Nc1c(C)cccc1C [Lidocaine hydrochloride] was run?
Its value is inactive: 0.404.

Which “nuclei number (z-score)” value does the source give for CCN(CC)CC(=O)Nc1c(C)cccc1C [Lidocaine] here?
Its value is inactive: 2.13.

With CC(=O)c1cc2c(o1)C(=O)c1ccccc1C2=O [Napabucasin] as the compound, how does the “nuclei number (z-score)” value read?
Its value is inactive: -0.0522.

CN1CCN(C(c2ccccc2)c2ccccc2)CC1 [Cyclizine 2HCl] was tested. Which “nuclei number (z-score)” value did it give?
The value was inactive: 0.0426.

CC(C)OC(=O)C1=CN(C(=O)c2ccc(F)c(F)c2)CC(C)(C)c2c1[nH]c1ccccc21 was tested. Which “nuclei number (z-score)” value did it give?
Its value is inactive: 0.449.

How did the “nuclei number (z-score)” value turn out when COC(=O)[C@@H]1CC2=CC(=O)CC[C@]2(C)[C@@]23O[C@@H]2C[C@@]2(C)[C@@H](CC[C@@]24CCC(=O)O4)[C@H]13 [Eplerenone] was run?
Its value is inactive: 0.156.

Which “nuclei number (z-score)” value does the source give for Clc1ccc(C(c2c[nH]c3ccccc23)c2c[nH]c3ccccc23)cc1 here?
The value was inactive: 5.36.

CC(C)(C)[N+]([O-])=Cc1ccc(S(=O)(=O)O)cc1S(=O)(=O)O was tested. Which “nuclei number (z-score)” value did it give?
The value was inactive: -0.00725.

O=C(/C=C\n1cnc(-c2cc(C(F)(F)F)cc(C(F)(F)F)c2)n1)N1CC(F)(F)C1 was tested. Which “nuclei number (z-score)” value did it give?
The value was active: -4.46.

How did the “nuclei number (z-score)” value turn out when C[C@]12CC[C@@H]3c4ccc(OC(=O)c5ccccc5)cc4CC[C@H]3[C@@H]1CC[C@@H]2O [Estradiol Benzoate] was run?
The value was inactive: 0.65.

With Cc1ccc(F)c(NC(=O)Nc2ccc(-c3cccc4[nH]nc(N)c34)cc2)c1 [Linifanib (ABT-869)] as the compound, how does the “nuclei number (z-score)” value read?
Its value is inactive: 1.99.

How did the “nuclei number (z-score)” value turn out when CC[C@@H](C)Nc1cc(C(=O)N[C@H]2C[C@H]3CC[C@@H](C2)N3c2ccc(C(=O)C3CC3)cn2)c(C)cc1C(N)=O was run?
Its value is active: -2.42.

For Cc1ccc(NC(=O)c2cccc(C(C)(C)C#N)c2)cc1Nc1ccc2ncn(C)c(=O)c2c1, which “nuclei number (z-score)” value is on record?
Its value is inactive: 0.473.

Which “nuclei number (z-score)” value does the source give for OCCN(CCO)c1nc(N2CCCCC2)c2nc(N(CCO)CCO)nc(N3CCCCC3)c2n1 [Dipyridamole] here?
The value was inactive: -0.295.

Which “nuclei number (z-score)” value does the source give for CC[C@H](CO)Nc1nc(NCc2ccccc2)c2ncn(C(C)C)c2n1 [Roscovitine (Seliciclib_CYC202)] here?
The value was inactive: -0.18.

For CCn1c2ccccc2c2cc(CNCc3ccccc3OC)ccc21, which “nuclei number (z-score)” value is on record?
Its value is inactive: -1.63.

Which “nuclei number (z-score)” value does the source give for CC(C)(CO)C(O)C(=O)NCCC(=O)O [Calcium D-Panthotenate] here?
The value was inactive: -0.644.

Which “nuclei number (z-score)” value does the source give for CC(C)OC(=O)OCOP(=O)(CO[C@H](C)Cn1cnc2c(N)ncnc21)OCOC(=O)OC(C)C [Tenofovir Disoproxil Fumarate] here?
The value was inactive: 0.531.

CCN(CC)CCNC(C(=O)OCCC(C)C)c1ccccc1 (centres undefined) [Camylofin Chlorhydrate] was tested. Which “nuclei number (z-score)” value did it give?
The value was inactive: 3.33.

Source: the supplement of paper PMC11348887
